Laboratory results reported in PubChem BioAssay AID651820 (National Center for Advancing Translational Sciences (NCATS), 2012).
“And” between values parts separate entries of the source, which are not always exact repeats. Equal values may be shown once. Screen size: about 340,000 compounds; about 12,000 (3.5%) were called active. The inconclusive results got no clear call from the source; some entries with a clear call stand among them for comparison. The call rests on the fitted dose curve; in most records, active means well fitted inhibition curve with a large enough effect; inconclusive means small, poorly fitted or top-dose-only effect, or another doubt; inactive means no such curve, though single readings can be large or run the other way. Where the call is inconclusive, the potency comes from a doubtful curve fit. More than one record can exist for a structure, and the calls need not agree.

Test: qHTS Assay for Inhibitors of Hepatitis C Virus (HCV)
Details: Huh7.5.1 HCVcc-Cre (HCVcc is cell-culture hepatitis C virus) infection, luciferase reporter, 44 h; activity change, negative = inhibition: at 41.8 µM (top of the series)
In short: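 Antiviral activity was scored by luciferase reporter output from cells infected with HCVcc-Cre (~0.5 moi) in presence of compound, 44 h infection period, cells seeded 1,000/well 4 h prior.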
On the % scale 0 is the no-effect control and ±100 the full control effect; potency means the concentration at half of the fitted maximal effect; tags describe the fitted curve by direction and shape.

Q: Which Potency does the source give for `Cc1ccc(-c2cc(C(=O)N3CCN(C(=O)c4ccco4)CC3)no2)cc1` here?
A: inactive

Q: With `O=C(Cc1ccccc1)Nc1ccc(N2CCCCC2)cc1` as the molecule, how does the Potency read?
A: inactive

Q: Which Potency does the source give for `CCO[C@H]1OC(C(=O)N2CCN(Cc3ccc4c(c3)OCO4)CC2)=C[C@@H](c2ccc3c(c2)OCO3)[C@@H]1CCCO` here?
A: inactive

Q: Which Potency does the source give for `Cc1cc(=O)[nH]c(SCC(=O)NC2CCCCCC2)n1` here?
A: inactive

Q: With `CCOC(=O)c1cc(CC)sc1NC(=O)C1CC1` as the molecule, how does the Potency read?
A: active: 11.2 µM

Q: With `O=C(Nc1ccc(N2CCCCC2)cc1)c1cncc(Br)c1` as the molecule, how does the Potency read?
A: inconclusive: 2.51 µM [inhibitor, partial curve]

Q: Which Potency does the source give for `COCCn1c(=S)[nH]c2cc(C(=O)N3CCCC(C)C3)ccc2c1=O` (stereo not drawn) here?
A: inconclusive: 10 µM [inhibitor, partial curve]

Q: Which Potency does the source give for `CC(Oc1ccc(Cl)cc1Cl)c1nc(-c2ccc(NC(=O)c3cccnc3)cc2)no1` (stereo not drawn) here?
A: active: 11.2 µM

Q: Which Potency does the source give for `COc1ccc(-c2sc3ccccc3c2/C=C/c2ccc(N)cc2)cc1` here?
A: inconclusive: 3.16 µM [inhibitor, single point]

Q: For `Cc1nc(NCc2ccco2)c2cn[nH]c2n1`, which activity change, negative = inhibition is on record?
A: inconclusive: -36.1% [inhibitor]

Q: With `COc1ccc(C(c2c(O)ccc3ccccc23)N2CCOCC2)c(OC)c1` (stereo not drawn) as the molecule, how does the Potency read?
A: inconclusive: 14.1 µM [inhibitor, single point]

Q: With `O=C(c1ccc(C(F)(F)F)cc1)C1CCCN(C(=O)CCc2ccncc2)C1` (stereo not drawn) as the molecule, how does the Potency read?
A: active: 11.2 µM

Q: Which Potency does the source give for `CCOc1ccc(CN2CCN(Cc3cccc4c3OCO4)CC2CCO)cc1` (stereo not drawn) here?
A: inactive

Q: With `CC(=O)C1=C(C)Nc2ncnn2C1c1ccccc1` (stereo not drawn) as the molecule, how does the Potency read?
A: inactive

Q: With `COc1ccccc1C(=O)NNC(=O)c1cccc([N+](=O)[O-])c1` as the molecule, how does the Potency read?
A: inactive

Q: Which Potency does the source give for `FC(F)(F)c1ccc2c(c1)nnn2C1CCN(Cc2nnnn2Cc2ccccc2)CC1` here?
A: inactive

Q: Which Potency does the source give for `CCCNc1nc(Nc2ccc(C)c(Cl)c2)c2cnn(C)c2n1` here?
A: inconclusive: 22.4 µM [inhibitor, single point]

Q: Which Potency does the source give for `Cc1ccccc1OCC(O)CN(Cc1ccccc1O)C1CCCCC1` (stereo not drawn) here?
A: inactive

Q: Which Potency does the source give for `OC(CN1CCN(c2ccccc2)CC1)Cn1c2ccccc2c2ccccc21` (stereo not drawn) here?
A: inactive

Q: For `CCOC(=O)c1ccccc1NC1c2ccccc2C(=O)N1c1ccc(C)cn1` (stereo not drawn), which Potency is on record?
A: inconclusive: 7.08 µM [inhibitor, partial curve]

Q: With `Cc1ccccc1OCCCCCNCCO` as the molecule, how does the Potency read?
A: inconclusive: 11.2 µM [inhibitor, single point]

Q: For `O=C1c2cnc3nc(SCc4ccccc4)nn3c2CC2c3ccccc3CCN12` (stereo not drawn), which Potency is on record?
A: inconclusive: 14.1 µM [inhibitor, single point]

Q: Which Potency does the source give for `CCNC(=O)n1cc(-n2cncn2)c(-c2ccc(Cl)cc2)n1` here?
A: inactive

Q: With `O=C(COC(=O)c1ccc(Cl)cc1Cl)Nc1cccc(S(=O)(=O)NC2=NCCC2)c1` as the molecule, how does the Potency read?
A: inconclusive: 25.1 µM [inhibitor, single point]

Q: With `COc1cc(S(=O)(=O)Nc2cc(C)cc(C)c2)ccc1F` as the molecule, how does the Potency read?
A: inconclusive: 31.6 µM [inhibitor, single point]

Q: Which Potency does the source give for `CN(C)CCNc1ncnc2c1sc1nc(N3CCOCC3)c3c(c12)CC(C)(C)SC3` here?
A: active: 10 µM

Q: For `Cc1ccc(NC(=O)c2sc3ncn(CC(=O)N4CCOCC4)c(=O)c3c2C)c(Br)c1`, which Potency is on record?
A: inconclusive: 22.4 µM [inhibitor, single point]

Q: For `CCC(C)Sc1ccc([C@@H]2[C@H]3C(=O)N(C)C(=O)[C@H]3[C@]3(C(=O)OC)CCCN23)cc1` (stereo partly drawn), which Potency is on record?
A: inactive

Q: Which Potency does the source give for `O=c1[nH]c2ccc(Br)cc2c(-c2ccccc2)c1CN1CCOCC1` here?
A: inactive

Q: Which Potency does the source give for `Clc1ccc(COC(Cn2ccnc2)c2ccc(Cl)cc2Cl)cc1` (stereo not drawn) here?
A: inconclusive: 31.6 µM [inhibitor, single point]

Q: Which Potency does the source give for `Cc1ccc(NC(=O)c2cccc(S(=O)(=O)N3CCCc4ccccc43)c2)nc1` here?
A: active: 10 µM

Q: Which Potency does the source give for `O=C(NCCOc1ccc(F)cc1)c1ccccc1SCc1ccccc1` here?
A: inconclusive: 31.6 µM [inhibitor, single point]

Q: Which Potency does the source give for `COc1ccc(C(C)n2c(C)c3c(C)nnc(C)c3c2C)cc1` (stereo not drawn) here?
A: inconclusive: 7.08 µM [inhibitor, partial curve]

Q: For `O=C(Nc1ccccc1Sc1ccccc1)c1ccccc1`, which Potency is on record?
A: inactive

Q: With `Cc1oc2cc(O)cc(C)c2c(=O)c1-c1cnn(-c2ccccc2)c1` as the molecule, how does the Potency read?
A: active: 8.91 µM

Q: Which Potency does the source give for `COCc1nnc(NC(=O)c2cc(Cl)ccc2OC)s1` here?
A: inconclusive: 31.6 µM [inhibitor, single point]

Q: With `O=C(Nc1c(C(=O)N2CCN(c3ccccn3)CC2)oc2ccccc12)c1cccc([N+](=O)[O-])c1` as the molecule, how does the Potency read?
A: inconclusive: 8.91 µM [inhibitor, partial curve]

Q: For `CCOc1ccc2[nH]c(C)c(CN3CCOCC3)c(=O)c2c1`, which Potency is on record?
A: inconclusive: 31.6 µM [inhibitor, partial curve]

Q: Which Potency does the source give for `Cc1cc(NC(=O)c2ccccc2F)n(-c2nc3ccccc3[nH]2)n1` here?
A: inconclusive: 3.55 µM [inhibitor, full curve, poor fit]

Q: Which Potency does the source give for `CCCn1c(N)c(C(=O)CN(C)CC(=O)Nc2ccccc2CC)c(=O)[nH]c1=O` here?
A: inactive

Q: With `COC(=O)C1=C(C)NC2=C(C(=O)CC(C)(C)C2)C1c1cn(Cc2ccc(Br)cc2)nc1-c1ccccc1` (stereo not drawn) as the molecule, how does the Potency read?
A: inconclusive: 22.4 µM [inhibitor, single point]

Q: With `Nc1c(C(=O)Nc2ccccc2)c2nc3ccccc3nc2n1CCCN1CCOCC1` as the molecule, how does the Potency read?
A: active: 22.4 µM

Q: With `CC(C)CNC(=O)c1cc2nc(C3CC3)cc(C(F)(F)F)n2n1` as the molecule, how does the Potency read?
A: active: 7.94 µM

Q: Which Potency does the source give for `CO/N=C/c1ccc(N2CCN(C(=O)c3ccc(Cl)cc3Cl)CC2)c([N+](=O)[O-])c1` here?
A: active: 8.91 µM

Q: Which Potency does the source give for `Cc1ccc(S(=O)(=O)Oc2ccc(/C=N/N=C3/NC(=O)C(CC(=O)O)S3)cc2)cc1[N+](=O)[O-]` (stereo not drawn) here?
A: inconclusive: 5.62 µM [inhibitor, single point]

Q: For `Cc1ccsc1C1Nc2ccccc2C(=O)N1O` (stereo not drawn), which Potency is on record?
A: inactive

Q: For `NNC(=O)CN1C(c2ccc(Br)cc2)=Nc2ccc(Br)cc2C1c1ccccc1` (stereo not drawn), which Potency is on record?
A: inconclusive: 31.6 µM [inhibitor, single point]

Q: With `CCOC(=O)c1[nH]c(C)c(/C(O)=C2\C(=O)C(=O)N(CCN(C)C)C2c2ccncc2)c1C` (stereo not drawn) as the molecule, how does the Potency read?
A: inconclusive: 5.62 µM [inhibitor, single point]

Q: For `COC(=O)Cn1c(=O)sc2ccccc21`, which Potency is on record?
A: inconclusive: 2.82 µM [inhibitor, partial curve]

Q: For `CCCNC(=O)c1ccccc1NC(=O)c1ccccc1N(C)S(=O)(=O)c1ccc(C)cc1`, which Potency is on record?
A: inactive and inconclusive: 5.01 µM [inhibitor, full curve]

Q: With `COc1ccc(S(=O)(=O)Nc2cccc(SC)c2)cc1OC` as the molecule, how does the Potency read?
A: inconclusive: 7.94 µM [inhibitor, partial curve]

Q: With `COC(=O)Cn1c(=NC(=O)c2nc3ccccc3s2)sc2cc(S(N)(=O)=O)ccc21` as the molecule, how does the Potency read?
A: inconclusive: 31.6 µM [inhibitor, single point]

Q: Which Potency does the source give for `CC(/C=N\NC(=O)c1ccc2c(c1)OCO2)c1ccccc1` (stereo not drawn) here?
A: inactive

Q: Which Potency does the source give for `O=C(CCSCCC(=O)NCc1cccs1)NCc1cccs1` here?
A: inactive

Q: For `NN=C1c2ccccc2C(=O)C1C(=O)C(c1ccccc1)c1ccccc1` (stereo not drawn), which Potency is on record?
A: inactive

Q: Which Potency does the source give for `COc1ccc(Cn2cccc(NC(=O)Nc3cccc(OC)c3)c2=O)cc1` here?
A: active: 14.1 µM

Q: For `COc1ccccc1CCC(=O)OCC(=O)Nc1cccc(S(=O)(=O)N2CCOCC2)c1`, which Potency is on record?
A: inactive

Q: For `C=CCNc1nc(Nc2ccc(Cl)cc2)nc(OC)n1`, which Potency is on record?
A: inconclusive: 12.6 µM [inhibitor, partial curve]

Q: With `Cc1ccc(NC(=O)Cc2cn(C)c3ccccc23)cc1F` as the molecule, how does the Potency read?
A: inconclusive: 12.6 µM [inhibitor, partial curve]

Q: For `Cc1ccc(C(=O)CCC(=O)OCC(=O)N2c3ccccc3NC(=O)C2(C)C)cc1`, which Potency is on record?
A: inconclusive: 1.26 µM [inhibitor, partial curve]

Q: With `CCOC(=O)c1ccc(Nc2nc(-c3cccnc3)nc3ccccc23)cc1` as the molecule, how does the Potency read?
A: inconclusive: 31.6 µM [inhibitor, single point]

Q: Which Potency does the source give for `O=C(CCSc1ccc(Cl)cc1)N1CCN(S(=O)(=O)c2ccccc2)CC1` here?
A: inconclusive: 31.6 µM [inhibitor, single point]

Q: Which Potency does the source give for `COC(=O)CCC(=O)OC1(C)C(=O)C=C2C=C(C3CC3)N(Cc3ccc(OC)cc3)C=C2C1=O` (stereo not drawn) here?
A: active: 3.55 µM

Q: With `O=C(Nc1cc(C(=O)N2CCCC2)ccc1N1CCCC1)c1ccccc1` as the molecule, how does the Potency read?
A: inactive

Q: With `COc1ccc(NS(=O)(=O)c2cccc(C(=O)N3CCN(Cc4ccc5c(c4)OCO5)CC3)c2)cc1` as the molecule, how does the Potency read?
A: inconclusive: 22.4 µM [inhibitor, single point]

Q: For `S=c1[nH]nc(-c2cc(-c3ccccc3)n[nH]2)n1/N=C/C=C/c1ccco1`, which Potency is on record?
A: inactive

Q: For `COc1cc(/C=C(\C#N)C(N)=O)ccc1OCc1c(C)no[n+]1[O-]`, which Potency is on record?
A: inactive

Q: With `CCn1c(C(=O)NCc2cccnc2)cc2sc(Cl)cc21` as the molecule, how does the Potency read?
A: inconclusive: 31.6 µM [inhibitor, single point]

Q: Which Potency does the source give for `CCOC(=O)CN1C(=O)S/C(=C/c2cc(C)n(-c3ccccn3)c2C)C1=O` here?
A: inconclusive: 31.6 µM [inhibitor, single point]

Q: With `N#Cc1c(-c2cccs2)cc(C2CC2)nc1SCC(N)=O` as the molecule, how does the Potency read?
A: inconclusive: 5.01 µM [inhibitor, partial curve]

Q: Which Potency does the source give for `O=C(NC1CCN(c2ncccn2)CC1)c1c(F)cccc1F` here?
A: inconclusive: 5.62 µM [inhibitor, single point]

Q: With `CN1CCCN(Cc2nc(-c3ccc(Cl)cc3)no2)CC1` as the molecule, how does the Potency read?
A: inconclusive: 7.94 µM [inhibitor, partial curve]

Q: For `Oc1ccc(C23CC4CC(CC(C4)C2)C3)cc1O`, which Potency is on record?
A: inconclusive: 22.4 µM [inhibitor, single point]
